Source: US20250092151A1 (ALTRUBIO, published 2025)

T1: human P-selectin glycoprotein ligand-1 (PSGL-1), expressed on Sp2/0-hPSGL-1 cells (human, UniProt Q14242 42-412)
T1 sequence: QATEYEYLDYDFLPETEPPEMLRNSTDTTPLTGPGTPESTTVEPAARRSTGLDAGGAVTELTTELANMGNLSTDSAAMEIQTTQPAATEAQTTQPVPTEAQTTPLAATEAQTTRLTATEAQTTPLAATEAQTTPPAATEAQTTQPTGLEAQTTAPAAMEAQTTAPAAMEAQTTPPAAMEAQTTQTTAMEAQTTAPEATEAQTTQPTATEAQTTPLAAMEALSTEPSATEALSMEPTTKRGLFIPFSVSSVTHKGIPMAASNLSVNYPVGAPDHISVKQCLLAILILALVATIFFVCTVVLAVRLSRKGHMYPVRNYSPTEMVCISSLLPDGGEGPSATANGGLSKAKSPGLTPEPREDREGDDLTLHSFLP


Columns and labels:
[1] = target: T1, human P-selectin glycoprotein ligand-1 …; assay: cell-based or functional assay
[2] = target: T1, human P-selectin glycoprotein ligand-1 …; assay: flow cytometry on Sp2/0-hPSGL-1 cells, antibody at 3 µg/mL
Procedure: (§1) Sp2/0 cells transfected with human PSGL-1 (Sp2/0-hPSGL1) were used as the PSGL-1 expressing cell line. Sp2/0-hPSGL1 cells were centrifuged at 1200 rpm for 5 min. The cell pellets were resuspended in FACS buffer (PBS containing 1% FBS) and pipetted into 96 well plate (1×10⁵ cells/well). To each well was added 100 μl of supernatants containing humanized 15A7H (h15A7H)/tetravalent antibodies, and these were incubated for 60 min at 4° C. The cells were washed three times with cold FACS buffer and then incubated with 100 μl of Mouse Anti-Human IgG₄ pFc′-PE (SouthernBiotech Cat. no. 9190-09) at 1 μg/ml concentration for 60 min at 4° C. Subsequently, the cells were washed three times with cold FACS buffer and analyzed by FACS analysis. All flow cytometric analyses were performed on a BD-LSR flow cytometer (Becton Dickinson) using the Cell Quest software.
(§2) The binding ability of h15A7H tetravalent antibodies was evaluated in human PSGL-1 SP2/O cells. The h15A7H tetravalent antibody bound positively to the SP2/O-hPSGL-1, but not to parental SP2/O cell lacking of hPSGL-1 antigen (Table A below). Additionally, wild type h15A7H and all of h15A7H tetravalent antibodies gave similar binding activity on SP2/O-hPSGL-1 (Table A).

[3] = target: T1, human P-selectin glycoprotein ligand-1 …; assay: flow cytometry on Sp2/0-hPSGL-1 cells, antibody at 0.3 µg/mL
Procedure: as §1, §2

[4] = target: T1, human P-selectin glycoprotein ligand-1 …; assay: flow cytometry on Sp2/0-hPSGL-1 cells, antibody at 0.1 µg/mL
Procedure: as §1, §2

[5] = target: T1, human P-selectin glycoprotein ligand-1 …; assay: flow cytometry on Sp2/0-hPSGL-1 cells, antibody at 1 µg/mL
Procedure: as §1, §2

Row | Apoptosis % (background subtracted, n = 4), mean, at 0.0625 µg/mL, SP2/O-hPSGL-1 cells, Annexin V/PI [1] [%] | Apoptosis % (background subtracted, n = 4), mean, at 0.5 µg/mL, SP2/O-hPSGL-1 cells, Annexin V/PI [1] [%] | mean fluorescence intensity [2] [MFI] | mean fluorescence intensity [3] [MFI] | mean fluorescence intensity [4] [MFI] | mean fluorescence intensity [5] [MFI] | Binder
1 | 11.8 | 26.8 | 4630 | 5410 | 2900 | 6680 | h15A7H LH10-g4pFc (antibody, human IgG4 S228P, Tetravalent: a dimer of two single-chain diabodies (VL-VH-VL-VH), each fused to human IgG4 Fc with the hinge mutation; also called scDb2-Fc) DIQMTQSPSSLSASVGDRVTITCRSSQSIVHNDGNTYFEWYQQKPGKAPKLLIYKVSNRFSGVPSRFSGSGSGTHFTLTISSLQPEDFATYYCFQGSYVPLTFGQGTKVEIKGGGGSGGGGSEVQLVESGGGLVQPGGSLRLSCAASGFTFSSFGMHWVRQAPGKGLEWVAYINGGSSTIFYANAVKGRFTISRDNAKNTLYLQMNSLRAEDTAVYYCARYASYGGGAMDYWGQGTLVTVSSGGGGSGGGGSGGGGSGGGGSGGGGSDIQMTQSPSSLSASVGDRVTITCRSSQSIVHNDGNTYFEWYQQKPGKAPKLLIYKVSNRFSGVPSRFSGSGSGTHFTLTISSLQPEDFATYYCFQGSYVPLTFGQGTKVEIKGGGGSGGGGSEVQLVESGGGLVQPGGSLRLSCAASGFTFSSFGMHWVRQAPGKGLEWVAYINGGSSTIFYANAVKGRFTISRDNAKNTLYLQMNSLRAEDTAVYYCARYASYGGGAMDYWGQGTLVTVSSGGGGSAAA[omitted - human IgG4 Fc with S228P (EU numbers)]
2 | 13.5 | 26.5 | 4540 | 5730 | 3160 | 6260 | h15A7H V2-V3-g4pFc (antibody, human IgG4 S228P, Tetravalent: a dimer of two tandem scFv units (v2 VH-VL, disulfide-constrained, then v3 VL-VH), each fused to human IgG4 Fc with the hinge mutation; also called taFv2-Fc (v2-v3)) EVQLVESGGGLVQPGGSLRLSCAASGFTFSSFGMHWVRQAPGKCLEWVAYINGGSSTIFYANAVKGRFTISRDNAKNTLYLQMNSLRAEDTAVYYCARYASYGGGAMDYWGQGTLVTVSSGGGGSGGGGSGGGGSGGGGSGGGGSDIQMTQSPSSLSASVGDRVTITCRSSQSIVHNDGNTYFEWYQQKPGKAPKLLIYKVSNRFSGVPSRFSGSGSGTHFTLTISSLQPEDFATYYCFQGSYVPLTFGCGTKVEIKASTGSDIQMTQSPSSLSASVGDRVTITCRSSQSIVHNDGNTYFEWYQQKPGKAPKLLIYKVSNRFSGVPSRFSGSGSGTHFTLTISSLQPEDFATYYCFQGSYVPLTFGQGTKVEIKGGGGSGGGGSGGGGSGGGGSGGGGSEVQLVESGGGLVQPGGSLRLSCAASGFTFSSFGMHWVRQAPGKGLEWVAYINGGSSTIFYANAVKGRFTISRDNAKNTLYLQMNSLRAEDTAVYYCARYASYGGGAMDYWGQGTLVTVSSGGGGSAAA[omitted - human IgG4 Fc with S228P (EU numbers)]
3 | 0.5 | 30 | 4920 | 6450 | 3950 | 6780 | h15A7H V4-V2-g4pFc (antibody, human IgG4 S228P, Tetravalent: a dimer of two tandem scFv units (v4 VL-VH then v2 VH-VL, both disulfide-constrained), each fused to human IgG4 Fc with the hinge mutation; also called taFv2-Fc (v4-v2)) DIQMTQSPSSLSASVGDRVTITCRSSQSIVHNDGNTYFEWYQQKPGKAPKLLIYKVSNRFSGVPSRFSGSGSGTHFTLTISSLQPEDFATYYCFQGSYVPLTFGCGTKVEIKGGGGSGGGGSGGGGSGGGGSGGGGSEVQLVESGGGLVQPGGSLRLSCAASGFTFSSFGMHWVRQAPGKCLEWVAYINGGSSTIFYANAVKGRFTISRDNAKNTLYLQMNSLRAEDTAVYYCARYASYGGGAMDYWGQGTLVTVSSASTGSEVQLVESGGGLVQPGGSLRLSCAASGFTFSSFGMHWVRQAPGKCLEWVAYINGGSSTIFYANAVKGRFTISRDNAKNTLYLQMNSLRAEDTAVYYCARYASYGGGAMDYWGQGTLVTVSSGGGGSGGGGSGGGGSGGGGSGGGGSDIQMTQSPSSLSASVGDRVTITCRSSQSIVHNDGNTYFEWYQQKPGKAPKLLIYKVSNRFSGVPSRFSGSGSGTHFTLTISSLQPEDFATYYCFQGSYVPLTFGCGTKVEIKGGGGSAAA[omitted - human IgG4 Fc with S228P (EU numbers)]
